Measured values reported in patent US20260200947A1, “FUSED CYCLIC COMPOUNDS AND USE THEREOF” (Jacobio Pharmaceuticals Co., Ltd., priority 2022, published 2026).

Tests used:
[1] = system: AsPC-1 cells (K-Ras G12D)

For `C#Cc1c(F)ccc2cc(N)cc(-c3nc4c5c(nc(OC[C@@]67CCCN6C[C@H](F)C7)nc5c3F)N3CCC=CC[C@H]3CO4)c12` [Compound 37], which IC50 [1] is on record?
Its IC50 is 27.1 nM.

What about the IC50 (SW620 cells (K-Ras G12V)) of the same compound?
Its IC50 is 5.07 nM.
